Experimental data taken from the RNAGym collection of RNA variant scans (doi:10.1093/nar/gkz1192).
Read counts are not given, so values of variants with three or more changes are uncertain.

B1: CPEB3 Ribozyme (parent)
chain: UAACAGGGGGCCACAGCAGAAGCGUUCACGUCGCAGCCCCUGUCAGAUUCUGGUGAAUCUGCGAAUUCUGCUGUAUAUCUC

Variants of: B1
Assay: self-cleavage, relative activity (ratio to wild type); higher = more cleavage; in vitro, sequencing
Summary of the method: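 Relative activity compares each variant's cleaved/total read fraction with that of the unmutated ribozyme. To get these fractions, barcoded CPEB3 ribozyme libraries from rounds of error-prone PCR were transcribed with T7 RNA polymerase for 5 hours at 37°C and then given 15 min of DNase I treatment before EDTA was added. The RNAs were reverse transcribed with template switching and sequenced on Illumina, and DNA sequencing linked barcodes to variants. A minimum of 5 reads applied, and three batches were averaged.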

Variant | self-cleavage
UAACAGGGGGCCACUGCAGAAGCGUUCACGUAGCAGCCCCUGUCAGGUUCUGGUGAAUCUGCGAACCCUGCUGUAUAUCUC [A15U C32A A47G U66C U67C] | 0.13
UAACAGGGGGCCACUGCAGAAGCGUUCACGUUGCAGCCCCUGUCAGAUUCUGGUGAACCUGCGAACUCUGCUGUAUAUCUC [A15U C32U U58C U66C] | 0.08
UAACAGGGGGCCACUGCAGAAGCGUUCACGUCGAUGCCCCUGUCAGAUUCUGGUGAAUCUGCGAAUUCUGCUGUAUAUCUC [A15U C34A A35U] | 0.09
UAACAGGGGGCCACUGCAGAAGCGUUCACGUCGCAGUCCCAGUCAGAUUCUGGUGAAUCUGCGAAUUCUGCUGUAUAUCUC [A15U C37U U41A] | 0.15
UAACAGGGGGCCACUGCAGAAGCGUUCACGUCGCAGUCCCUGCCAGAUUCUGGUGAAUCUGCGAAUUCUGCUGUACAUCUC [A15U C37U U43C U76C] | 0.34
UAACAGGGGGCCACUGCAGAAGCGUUCACGUCGCAGCACCUGUCAGAUUCUGGUGCAUAUGCGAAUUCAGCUGUAUACCUC [A15U C38A A56C C59A U69A U78C] | 0.1
UAACAGGGGGCCACUGCAGAAGCGUUCACGUCGCAGCACCUGCCAGAUUCUGGUGAAUCUGCGAAUUCUGCUGUAUAUCUC [A15U C38A U43C] | 0.31
UAACAGGGGGCCACUGCAGAAGCGUUCACGUCGCAGCACCUGCCAGAUUCUGGUGCAUAUGCGAAUUCUGCUGUAUAUCUC [A15U C38A U43C A56C C59A] | 0.25
UAACAGGGGGCCACUGCAGAAGCGUUCACGUCGCAGCACCUGUCAGAUUCUGGAGAAUCUGCGAAUUCUGCUGUAUAUCUC [A15U C38A U54A] | 0.13
UAACAGGGGGCCACUGCAGAAGCGUUCACGUCGCAGCGCCUGUCAGAUUCUGGUGAAUCUGCGGAUUCUGCUGUAUACCCC [A15U C38G A64G U78C U80C] | 0.02
UAACAGGGGGCCACUGCAGAAGCGUUCACGUCGCAGCUCCUGUCAGAUUCUGGUGAAUCUGCGAAUUUUGCCGUAUAUCUC [A15U C38U C68U U72C] | 0.26
UAACAGGGGGCCACUGCAGAAGCGUUCACGUCGCAGCUCCUGUCAGAUUCUGGUGAAUCUGCGAAUUCUGCUAUAUAUCUC [A15U C38U G73A] | 1.28
UAACAGGGGGCCACUGCAGAAGCGUUCACGUCGCAGCCCUUGUCAGGUUCUGGUGAAUCUGCGAAUCCUGCUGUAUAUCUC [A15U C40U A47G U67C] | 0.05
UAACAGGGGGCCACUGCAGAAGCGUUCACGUCGCAGCCCCUGUGAGAUUCUGGUGUAUCUGCGAAUUCUGCUGUAUAUCUC [A15U C44G A56U] | 0.11
UAACAGGGGGCCACUGCAGAAGCGUUCACGUCGCAGCCCCUGUCAGAUUAUGGUGAAUCUGCGAAUUCUGUUGUAUAUCUC [A15U C50A C71U] | 0.05
UAACAGGGGGCCACUGCAGAAGCGUUCACGUCGCAGCCCCUGUCAGAUUCUGGUGAAUAUGCGAAUUCUUCUGUAUAUCUC [A15U C59A G70U] | 0.13
UAACAGGGGGCCACUACAGGAGCGUUCACGUCGCAGCCCCUGUCAGAUUCUGGUGAAUCUGCGAAUUCUGCUGUACAUCUC [A15U G16A A20G U76C] | 0.25

Variant | self-cleavage
UAACAGGGGGCCACUACAGAAGCGUUCACGUCGCGGCCCCUGUCAGAUUCUGGUGAAUCUGCGAAUUCUGCUGUAUAUCUC [A15U G16A A35G] | 0.38
UAACAGGGGGCCACUACAGAAGCGUACACGUCGCAGCCCCUGUCAGAUUCUGGUGAAUCUGCGAAUUCUGCUGUAUAUCUC [A15U G16A U26A] | 0.5
UAACAGGGGGCCACUCCAGAAGCGUUCAUGUCGCAGCCCCUGUCAGAUUCUGGUGAACCUGCGAAUUCUGCAGUAUAUCUC [A15U G16C C29U U58C U72A] | 0.16
UAACAGGGGGCCACUUCAGAAGCGUUCGCGUCGCAGCCCCUGUCAGAUUCCGGUGAAUCUGCGAAUUCUGCUGUAUAUCCC [A15U G16U A28G U51C U80C] | 0.1
UAACAGGGGGCCACUUCAGAAGCGCUCACGUCGCAGCCCCCGUCAGAUUCUGGCGAAUCUGCGAAUUCUGCUGUAUAUCUC [A15U G16U U25C U41C U54C] | 0.09
UAACAGGGGGCCACUGCAAAAGCGUUCACGUCGCAGCCCCCGUCAGAUUCUGGUGAAUCUGCGAAUUCUGCUGUAUAUCUC [A15U G19A U41C] | 0.12
UAACAGGGGGCCACUGCAGAAUCGUUCACGUCUCAGCCCCUGUCAGAUUCUGGUGAAUCUGCGAAUUCUGCUGCAUAUCUC [A15U G22U G33U U74C] | 0.17
UAACAGGGGGCCACUGCAGAAUCGUCCACGUCGCAGCCCCUGUCAGAUCCUGGUGAAUCCGCGAAUACUGCUGUAUAUCUC [A15U G22U U26C U49C U60C U67A] | 0.14
UAACAGGGGGCCACUGCAGAAUCGUUCACGUCGCAGCCCCUGUCAGAUUCUGGUGAAUCUGCGAAUUCCGCUGUAUAUCUC [A15U G22U U69C] | 0.08
UAACAGGGGGCCACUGCAGAAGCAUCCACGUCGCAGCCCCUGCCAGAUUCUGGUGAAUCUGCGAGUUCUGCUGUAUAUCUC [A15U G24A U26C U43C A65G] | 0.06
UAACAGGGGGCCACUGCAGAAGCAUUCACGCCGCAGCCCCAGUCAGAUUCUGGAGGAUCUGCGAAUUCUGCUGUAUAACUC [A15U G24A U31C U41A U54A A56G U78A] | 0.08
UAACAGGGGGCCACUGCAGAAGCAUUCACGCCGCAGCCCCCGUCAGAUUCUGGUGAAUCUGCGAAUUCUGCUGUAUAUCUC [A15U G24A U31C U41C] | 0.16
UAACAGGGGGCCACUGCAGAAGCAUUCACGUCGCAGCCCCUGUCAGAUUCAGGUGGAUCUGCGAAUUCUGCUGUAUAUCUC [A15U G24A U51A A56G] | 0.08
UAACAGGGGGCCACUGCAGAAGCGUUCACAUCGCAGCCCCCGUCAGAUCCUGGUGAAUCUGCGAAUUCUGCUGUAUACCUC [A15U G30A U41C U49C U78C] | 0.06
UAACAGGGGGCCACUGCAGAAGCGUUCACAUCGCAGCCCCUGUCAGAUUCUGGUGAAUCAGCGAAUUCUGCUGUAAAUCUC [A15U G30A U60A U76A] | 0.09
UAACAGGGGGCCACUGCAGAAGCGUUCACCUCGCUGCCCCAGUCAGAUUCUGGUGAAUCUGCGAAUUCUGCUGUAUAUCUC [A15U G30C A35U U41A] | 0.06
UAACAGGGGGCCACUGCAGAAGCGUUCACGUCACAGCCCCUGUCAGAUUCUGGUGGAUCUGCGAAUUCUGCUGUAUAUCUC [A15U G33A A56G] | 0.17
